About 2,200 (0.71%) of roughly 310,000 compounds showed an effect of 50% or more. The effect is printed as a negative number. The list shows a part of the results.

The target of this experiment is human ether-à-go-go-related gene (hERG) potassium channel (human, UniProt Q12809). In words: primary screen, population patch clamp on CHO cells stably expressing hERG.
Sequence of human ether-à-go-go-related gene (hERG) potassium channel (Q12809 whole entry, looked up): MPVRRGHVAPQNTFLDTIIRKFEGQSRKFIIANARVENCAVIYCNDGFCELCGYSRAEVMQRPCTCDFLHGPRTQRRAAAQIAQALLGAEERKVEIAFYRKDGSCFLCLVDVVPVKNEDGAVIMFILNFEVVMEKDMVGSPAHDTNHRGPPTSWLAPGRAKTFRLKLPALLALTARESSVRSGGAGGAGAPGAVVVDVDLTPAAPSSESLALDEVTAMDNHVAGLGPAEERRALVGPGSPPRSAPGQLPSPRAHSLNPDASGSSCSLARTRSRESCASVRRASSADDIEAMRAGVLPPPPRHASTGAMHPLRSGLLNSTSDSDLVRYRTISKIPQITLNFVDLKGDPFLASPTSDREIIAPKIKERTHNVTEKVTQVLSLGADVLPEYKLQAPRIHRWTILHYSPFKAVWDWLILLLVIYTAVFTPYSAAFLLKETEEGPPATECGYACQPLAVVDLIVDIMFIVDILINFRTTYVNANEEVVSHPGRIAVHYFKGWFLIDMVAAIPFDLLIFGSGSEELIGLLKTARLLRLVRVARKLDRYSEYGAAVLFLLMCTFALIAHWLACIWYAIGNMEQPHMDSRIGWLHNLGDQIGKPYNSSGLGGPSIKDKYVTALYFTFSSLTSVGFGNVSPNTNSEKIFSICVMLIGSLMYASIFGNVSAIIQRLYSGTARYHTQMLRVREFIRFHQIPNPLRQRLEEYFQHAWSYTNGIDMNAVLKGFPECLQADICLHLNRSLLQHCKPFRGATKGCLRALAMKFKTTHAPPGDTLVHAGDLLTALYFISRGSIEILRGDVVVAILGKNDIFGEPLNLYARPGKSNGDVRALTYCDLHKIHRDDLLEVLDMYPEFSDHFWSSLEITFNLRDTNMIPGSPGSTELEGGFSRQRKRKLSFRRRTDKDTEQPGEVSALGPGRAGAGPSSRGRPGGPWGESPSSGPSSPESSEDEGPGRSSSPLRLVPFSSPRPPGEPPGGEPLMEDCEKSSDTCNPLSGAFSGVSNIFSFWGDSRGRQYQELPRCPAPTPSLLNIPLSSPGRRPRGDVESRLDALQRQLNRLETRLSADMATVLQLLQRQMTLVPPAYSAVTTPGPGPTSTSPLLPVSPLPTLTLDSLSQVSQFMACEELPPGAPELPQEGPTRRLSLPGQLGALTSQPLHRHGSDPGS
`Cc1nn(C)c(C(=O)Nc2ccc(Br)cc2F)c1Br`: the “hERG current change (%, negative = inhibition) at 1uM” value came out at 14%.
Turning to `N#CC1(C#N)C(c2ccccc2)OC23CCCCCC2C1(C#N)C(=N)O3` (stereo not drawn), the “hERG current change (%, negative = inhibition) at 1uM” value was -3.8%.
With `Cc1cc(/C=N/NC(N)=S)c(O)c(/C=N/NC(N)=S)c1`, the “hERG current change (%, negative = inhibition) at 1uM” value was determined as 2.66%.
With `Cc1ccc(C)c(OCCCCn2ccnc2)c1`, the “hERG current change (%, negative = inhibition) at 1uM” value is recorded as -6.77%.
As for `O=C(Nc1cccc(-c2cn3ccccc3n2)c1)c1cccs1`, the “hERG current change (%, negative = inhibition) at 1uM” value came out at 7.01%.
As to `O=S(=O)(c1ccccc1)N1CCN(c2cc(-c3ccccc3)nc3ncnn23)CC1`, the “hERG current change (%, negative = inhibition) at 1uM” value was found to be 1.46%.
For the molecule `COc1cccc(C(O)c2nc3ccccc3n2C(C)C)c1OC` (stereo not drawn), the “hERG current change (%, negative = inhibition) at 1uM” value is listed as 10.4%.
Consider `Cc1ccc(/C=N/NC(=O)c2cccc(S(=O)(=O)Nc3cccc(Cl)c3)c2)o1`, for which the “hERG current change (%, negative = inhibition) at 1uM” value worked out at 11.6%.
The figure for `O=c1cccccc1NCc1ccccc1` is -2.21%; for `COC(=O)c1c(C)oc(C)c1S(=O)(=O)Nc1ccc(C(C)C)cc1` it is 7.58%.
As for `O=C(CN(C(=O)CCC(=O)Nc1nccs1)c1ccc(F)cc1)NCc1ccc(F)cc1`, the “hERG current change (%, negative = inhibition) at 1uM” value came out at 22.5%.
For `O.[O-][N+]12CCN(CC1)c1ccccc12`, the “hERG current change (%, negative = inhibition) at 1uM” value is reported as 18.7%.
`CCC(=O)NC(c1cccc([N+](=O)[O-])c1)c1c(OC(C)=O)ccc2ccccc12` (stereo not drawn): the “hERG current change (%, negative = inhibition) at 1uM” value came to 5.43%.
Consider `COc1c(F)c(F)c(C(=O)Nc2c(C)cc(Br)cc2C)c(F)c1F`, for which the “hERG current change (%, negative = inhibition) at 1uM” value came out at 2.51%.
`C/C(=N\Nc1cc(C)nc(-c2ccccc2)n1)c1cccc([N+](=O)[O-])c1`: the “hERG current change (%, negative = inhibition) at 1uM” value is 11.1%.
Turning to `O=C(O)CCN(Cc1ccccc1)S(=O)(=O)c1c(Cl)cccc1Cl`, the “hERG current change (%, negative = inhibition) at 1uM” value is reported as 11%.
On to `CCC(C(=O)O/N=C(\N)c1ccc(Cl)cc1)c1ccccc1` (stereo not drawn), for which the “hERG current change (%, negative = inhibition) at 1uM” value is 0.226%.
Consider `Cc1cccc(OC(C)c2ccnc3nc(/N=C/N(C)C)nn23)c1` (stereo not drawn), for which the “hERG current change (%, negative = inhibition) at 1uM” value is -2.85%.
Turning to `O=C(C[N+]12CCC(CC1)C(CO)C2)c1ccc([N+](=O)[O-])cc1.[Br-]` (stereo not drawn), the “hERG current change (%, negative = inhibition) at 1uM” value turned out to be 10.5%.
For the molecule `COc1ccc(C)cc1S(=O)(=O)N(CC(=O)N1CCOCC1)Cc1ccccc1`, the “hERG current change (%, negative = inhibition) at 1uM” value amounted to 2.25%.
For `O=S(=O)(c1ccccc1)c1nc(-c2ccco2)oc1N1CCCCCC1`, the “hERG current change (%, negative = inhibition) at 1uM” value was determined as 11.4%.
For `O=C(COc1ccccc1)N=C1SC2CS(=O)(=O)CC2N1Cc1ccccc1` (stereo not drawn), the “hERG current change (%, negative = inhibition) at 1uM” value amounted to 0.629%.
Consider `C/C(=N\NC(=O)c1ccc(-c2ccccc2)cc1)c1ccco1`, for which the “hERG current change (%, negative = inhibition) at 1uM” value is 6.21%.
For `CCOc1ccc(-c2cc(N)n(S(=O)(=O)c3ccc(OC)cc3)n2)cc1`, the “hERG current change (%, negative = inhibition) at 1uM” value turned out to be 7.59%.
For `CCOC(=O)N/N=C/c1ccc(N2CCOCC2)s1`, the “hERG current change (%, negative = inhibition) at 1uM” value is recorded as -11.1%.
On to `COc1cc(Cl)c(NS(=O)(=O)c2ccc(-c3ccc(=O)[nH]n3)o2)c(OC)c1`, for which the “hERG current change (%, negative = inhibition) at 1uM” value is 10.7%.
The figure for `O=S(=O)(Nc1nc2ccccc2nc1N1CCN(c2ccccc2F)CC1)c1ccc(Cl)cc1` is 3.5%; for `CCN(CC)c1ccc(NC(=O)CN2C(=O)CC(C)(C)S(=O)(=O)c3ccccc32)c(C)c1` it is 2.99%; for `COc1ccc(OC)c(C(=O)CSc2nnc(Cc3cccs3)n2CCc2ccccc2)c1` it is -6.84%.
As for `O=C(O)c1cc(S(=O)(=O)N2CCCCC2)ccc1F`, the “hERG current change (%, negative = inhibition) at 1uM” value was -6.67%.
For `CCOC(=O)c1cnc2c(c(C)nn2C)c1Oc1ccccc1F`, the “hERG current change (%, negative = inhibition) at 1uM” value was 10.5%.
As to `CC(C)(NO)/C(=N\O)c1ccccc1`, the “hERG current change (%, negative = inhibition) at 1uM” value came out at 7.23%.
Regarding `COc1cc(C)ccc1S(=O)(=O)N1CCCCCC1`, the “hERG current change (%, negative = inhibition) at 1uM” value is given as 9.29%.
Take `O=C(O)CC1(CC(=O)NCc2cc(F)cc3c2OCOC3)CCCCC1`: the “hERG current change (%, negative = inhibition) at 1uM” value is on record as 9.18%.
As for `O=C(CCCOc1ccccc1)N1CCCCC1`, the “hERG current change (%, negative = inhibition) at 1uM” value amounted to 0.568%.
Turning to `CCOc1ccc(NC(=O)CC2C(=O)N(c3ccc(OC)cc3)C(=S)N2Cc2ccccn2)cc1` (stereo not drawn), the “hERG current change (%, negative = inhibition) at 1uM” value is 3.74%.
In the case of `COc1ccc(CNCCc2ccc3c(c2)OCO3)c(OC)c1OC.O=C(O)C(=O)O`, the “hERG current change (%, negative = inhibition) at 1uM” value is recorded as 11.3%.
`CCOc1ccccc1NC(=O)CSc1nc(=O)n(Cc2ccncc2)c2c1CCC2`: the “hERG current change (%, negative = inhibition) at 1uM” value came out at 2.25%.
With `Cc1nc(-c2ccc(S(=O)(=O)N3CCN(CCc4ccccc4)CC3)s2)cs1`, the “hERG current change (%, negative = inhibition) at 1uM” value is reported as 12.9%.
As for `Cc1csc(NC(=O)c2cc3c(s2)CCC3)n1`, the “hERG current change (%, negative = inhibition) at 1uM” value was 8.92%.
On to `O=C1CCC/C1=C/Nc1ccc2c(c1)OCO2`, for which the “hERG current change (%, negative = inhibition) at 1uM” value is 11.2%.
The figure for `Cc1cccc(NC(=S)NC(=O)C2CC2)c1` is 13.6%; for `CCSc1nnc(-c2ccc(Cl)cc2)c2ccccc12` it is 7.78%.
For `Cc1ccc(S(=O)(=O)N(Cc2cccc(C)c2)C(=O)N2CCN(C)CC2)cc1`, the “hERG current change (%, negative = inhibition) at 1uM” value is 13.5%.
The figure for `COc1ccc([C@H]2CC(=O)C=C(c3ccc4c(c3)OCCO4)C2)cc1` is 9.59%.
`CC(C)C(NS(=O)(=O)c1cccs1)C(=O)NCc1ccccc1Cl` (stereo not drawn): the “hERG current change (%, negative = inhibition) at 1uM” value is recorded as 3.64%.
In the case of `O=C(NC1(C(F)(F)F)NC(=O)N(Cc2cccnc2)C1=O)c1ccccc1` (stereo not drawn) it was 3.47%; in that of `Cc1cccc(C)c1NC(=O)c1sc(N)nc1-c1ccccc1`, 2.83%.
As for `O=C(NC1CC1)C1CC(=O)N(C2CCCCC2)C1` (stereo not drawn), the “hERG current change (%, negative = inhibition) at 1uM” value was determined as 11.4%.
Turning to `Cc1ccc(N(CC(=O)NCc2ccc(F)cc2)C(=O)CCC(=O)Nc2ccccn2)cc1C`, the “hERG current change (%, negative = inhibition) at 1uM” value came out at 9.04%.
The figure for `COc1cccc(-c2cc(C(=O)Nc3ccc(OC)c(OC)c3)no2)c1` is 4.92%; for `O=C(Cc1ccc(Cl)cc1)c1c[nH]c(C(=O)NCc2cccnc2)c1` it is -2.65%; for `CN(C)S(=O)(=O)c1ccc(-c2csnn2)s1` it is 2.18%.
On to `CCCc1nc(SCC(=O)N2CCCC2)c2ccccc2n1`, for which the “hERG current change (%, negative = inhibition) at 1uM” value was -8.6%.
In the case of `O=C(NC(=S)NCc1cccnc1)c1ccccc1[N+](=O)[O-]`, the “hERG current change (%, negative = inhibition) at 1uM” value is given as 25.5%.
As to `O=C(c1ccco1)N1CCC(c2nc3c(nnn3Cc3ccc(F)cc3)c(=O)[nH]2)CC1`, the “hERG current change (%, negative = inhibition) at 1uM” value is reported as 6.38%.
Turning to `O=C(CC(=O)c1ccccc1)Nc1ccccc1C(F)(F)F`, the “hERG current change (%, negative = inhibition) at 1uM” value is on record as 13.8%.

The values above are taken from paper PMC4336329 (PLoS ONE, 2015).
